# Results as given in PubChem BioAssay AID485297 (National Center for Advancing Translational Sciences (NCATS), 2010).
# The campaign covered roughly 320,000 compounds. About 9,100 (2.8%) were called active. The shares of active, inactive and inconclusive entries below differ from those in the screen. Calls follow the shape of the dose curve; as a rule, active = well fitted activation curve with a large enough effect; inconclusive = small, poorly fitted or top-dose-only effect; inactive = no such curve, though single readings can be large or run the other way. No potency is given beside an inconclusive call; the fits are too rough.
# Experiment: qHTS Assay for Rab9 Promoter Activators; also: nearly all actives have a fitted effect of over 60% in size; as to activation, negative = inhibition: % of control where 0% means no effect
# Settings: Huh7 Rab9 promoter-luciferase reporter, luminescence, 24 h; series mostly up to 9.22 µM; activation, negative = inhibition: at the top concentration
# In short: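 Using Huh7 cells stably transfected with Rab9 promoter–luciferase, compounds were incubated 24 h at 37 °C, 5% CO2; luciferase luminescence was read 10 min after reagent addition.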
# Potency is read from the fitted curve at half-maximal effect; tags tell the direction and shape of the fitted curve.
Structure (SMILES),"activation, negative = inhibition",Potency
O=C(O)/C=C/C(=O)Nc1ccc2c(c1)C(=O)c1ccccc1C2=O,inactive: 12.9%,
CCCc1c(C)c2ccc(OCC(C)=O)cc2oc1=O,,"inconclusive [activator, single point]"
O=C(CCS(=O)(=O)Cc1ccccc1)Nc1ncc([N+](=O)[O-])s1,,"inconclusive [activator, partial curve]"
O=C(Nc1ccc2[nH]ccc2c1)c1ccc(F)cc1,,active: 0.501 µM
NS(=O)(=O)c1ccc(NC(=O)CSc2nc3c(cnn3-c3ccccn3)c(=O)[nH]2)cc1,inactive: -2.29%,
C[C@@H](NC(=O)c1ncn(C)c1C(=O)N[C@H](C)c1ccccc1)c1ccccc1,inactive: 0.976%,
COC(=O)c1c(C)[nH]c(C(=O)/C=C/c2cccc(Cl)c2)c1C,,"inconclusive [activator, single point]"
Oc1ccc(Cl)cc1N=Cc1sc2ccccc2c1Cl,inactive: 0.806%,
COc1ccc(Br)c(C(=O)OCC(=O)NC2CCCCCC2)c1,inactive: -0.389%,
Cc1ccc(/C=N/N2CCOCC2)s1,,"inconclusive [activator, partial curve]"
CSC(C(=O)c1cc2ccccc2o1)c1ccccc1 (stereo not drawn),,active: 3.16 µM
CC(/C=C/c1ccccc1)=N\NC(=O)CCc1ccccc1,inactive: -4.76%,
O=c1[nH]c(/C=C/c2cccc3ccccc23)nc2ccccc12,,"inconclusive [activator, single point]"
O=C(Cn1nc(-c2ccccc2)c2ccccc2c1=O)NN1CCOCC1,inactive: -3.78%,
CN(Cc1nc(C(c2ccccc2)c2ccccc2)no1)CC1COCCO1 (stereo not drawn),,"inconclusive [activator, partial curve]"
O=C(Nc1ccccc1)Nc1ccc(Br)cc1F,,"inconclusive [activator, partial curve]"
O=C(NC1CCC(O)CC1)c1ccc(-c2ccc(Cl)cc2)o1 (stereo not drawn),,"inconclusive [activator, partial curve]"
CCOc1ccc(-c2ccc(SCC(=O)Nc3nnc(CC)s3)nn2)cc1,,"inconclusive [activator, full curve]"
COc1ccc(C(=O)Nc2ccc3ccccc3c2)c(OC)c1,,"inconclusive [activator, single point]"
Oc1ccc(-c2c(-c3ccsc3)sc3ccccc23)cc1,inactive: -4.02%,
Cc1ccc2cc(-c3noc(C(C)(C)C)n3)c(=O)[nH]c2c1,inactive: 21.3%,
C=CCc1cc(/C=C2/NC(=O)N(CC)C2=O)cc(OCC)c1OCc1ccc(C(=O)O)cc1,inactive: -3.54%,
CN(C)C(CNC(=O)c1ccc2ccccc2c1)c1ccco1 (stereo not drawn),,"inconclusive [activator, single point]"
Cc1nn(C)c(C)c1C(C)NC(=O)c1cc(COc2ccc(F)c(F)c2)on1 (stereo not drawn),,"inconclusive [activator, single point]"
O=C(NCc1ccco1)Nc1ccc(Br)cc1Cl,,"inconclusive [activator, partial curve]"
CCOc1cc(C2NN=C(c3ccccc3)S2)ccc1OCc1ccc(F)cc1 (stereo not drawn),,active: 3.16 µM

Structure (SMILES),"activation, negative = inhibition",Potency
COc1ccc(CCNC(=O)C2c3ccccc3C(=O)N2CCC(C)C)cc1OC (stereo not drawn),inactive: -1.45%,
O=C1c2ccccc2C(=O)N1CCCOc1ccccc1,,"inconclusive [activator, single point]"
CC1CCCN(c2ncnc3c2cnn3-c2ccccc2)C1 (stereo not drawn),,active: 0.141 µM
Cc1ccc(-c2cn(-c3ccccc3)c(=S)[nH]2)cc1C,,active: 0.126 µM
O=C(CSC1=NCCS1)Nc1nc2c(s1)CCCC2,,"inconclusive [activator, partial curve]"
N#C/C(=C/c1cccs1)c1nc2ccccc2[nH]1,,active: 2.82 µM
CCC(C)NC(=O)CN1C(=O)NC2NC(=O)NC21 (stereo not drawn),inactive: -2.29%,
COc1ccc(CNC(=O)COC(=O)CO/N=C(\C)c2ccc3c(c2)OCO3)cc1,inactive: -5.6%,
CC(C)N(C(C)C)S(=O)(=O)c1ccc(N2CCc3ccccc3C2)nc1,,active: 3.98 µM
CCC(=O)Nc1cc2nn(-c3ccc(C)cc3)nc2cc1C,,"inconclusive [activator, full curve, poor fit]"
S=C(NCc1ccco1)Nc1cccc(Cl)c1,inactive: -6.22%,
COc1ccc(-n2ncc3c(N4CCCc5ccccc54)ncnc32)cc1,,active: 0.794 µM
CN1CCCNc2nc3ccccc3nc21,,"inconclusive [activator, single point]"
COc1ccc(NC(=O)c2c(Cl)n(C)c3ccccc23)cc1,inactive: 27.6%,
COc1ccc(C(=O)NC(=S)N(Cc2ccccc2)Cc2ccccc2)cc1,inactive: -2.93%,
O=C(CCS(=O)(=O)c1ccccc1)NC1CCCCC1,,"inconclusive [activator, single point]"
O=C(CSc1ccc(-c2ccccc2)nn1)N1CCCCC1,,"inconclusive [activator, single point]"
O=C(NCCc1ccccc1)c1cc2ncc(Br)cn2n1,,"inconclusive [activator, partial curve]"
CCCOc1ccccc1OCC(=O)Nc1cccc(S(=O)(=O)NC2=NCCC2)c1,inactive: -43.6%,
CCCc1nc2sc3c(c2c(=O)n1NC(=O)CCC(=O)O)CCCC3,inactive: -1.79%,
O=[N+]([O-])c1ccccc1N/N=C1\CCc2ccccc21,,"inconclusive [activator, single point]"
C=CCN=C1NN=C(c2ccc3c(c2)OCCO3)CS1,,active: 0.447 µM
O=C(Nc1sc2c(c1C(=O)O)CCC2)c1ccccc1,,"inconclusive [activator, partial curve]"
O=c1n(-c2ccc(Br)cc2)cnn1-c1ncccc1[N+](=O)[O-],,active: 2 µM
COc1ccc(C(=O)NC(=S)Nc2nc(C)cc(C)n2)cc1Br,,"inconclusive [activator, partial curve]"
C=C(C)CSc1nnc2n(N)c(=O)c3ccccc3n12,,"inconclusive [activator, single point]"

Structure (SMILES),"activation, negative = inhibition",Potency
Fc1ccc(Nc2nc(-c3cccnc3)cs2)cc1,,"inconclusive [activator, single point]"
Cc1cccc(C)c1OCc1cc(C(=O)N2CCN(C3CCCC3)CC2)no1,,"inconclusive [activator, single point]"
O=C(NC1CC(=O)c2sccc21)c1ccc(Cl)cc1Cl (stereo not drawn),,active: 2.82 µM
O=C(Nc1nccs1)c1ccc(COc2ccccc2Br)o1,,"inconclusive [activator, single point]"
O=c1cccc2n1Cc1cc3ccccc3nc1-2,,active: 2.82 µM
Cc1ccc(OCC(=O)N2CCc3ccccc32)c([N+](=O)[O-])n1,,"inconclusive [activator, single point]"
COc1cccc(OCc2cc(C(=O)NC(C)c3cnn(C)c3C)no2)c1 (stereo not drawn),,"inconclusive [activator, single point]"
CCC1(C)N=C(c2ccc3c(c2)OCO3)CC(c2ccccc2O)N1 (stereo not drawn),,"inconclusive [activator, single point]"
CC(C)Sc1nc2ccc(N3C(=O)C4CCCCC4C3=O)cc2s1 (stereo not drawn),,"inconclusive [activator, single point]"
CCC(=O)NCCc1nc2cc(NC(=O)COc3ccccc3)ccc2n1C,,"inconclusive [activator, partial curve]"
C(=N\Nc1nc(Nc2ccccc2)nc(Nc2ccccc2)n1)/c1cccnc1,inactive: 3.59%,
CCCCOc1ccc(C(=O)Nc2ccc(OCC(=O)N3CCOCC3)cc2)cc1,inactive: 22.2%,
CC(C)(C)NC(=O)CN(C(=O)CCC(=O)Nc1nccs1)c1cccc(C(F)(F)F)c1,inactive: -1.51%,
O=[N+]([O-])c1nn(-c2ccc3c(c2)OCCO3)n(O)c1=NCc1ccc(F)cc1,,active: 3.55 µM
O=C(Nc1ccc(N2CCOCC2)nc1)c1c(F)cccc1F,,"inconclusive [activator, partial curve]"
Cc1ccc(C(=O)NC2CCCCNC2=O)cc1 (stereo not drawn),,"inconclusive [activator, single point]"
COc1ccc(O)c(/C=N/N2CCOCC2)c1,,"inconclusive [activator, single point]"
CCOc1ccc(OCc2ccc(C(=O)Nc3cccnc3)cc2)cc1,,"inconclusive [activator, partial curve]"
COc1ccc(C(=O)Nc2ccccc2C(=O)O)cc1NC(=O)C(c1ccccc1)c1ccccc1,inactive: 22%,
COc1ccc2nc(NC(=O)CSc3nnc(C)s3)sc2c1,,"inconclusive [activator, partial curve]"
CC1(C)CC(=O)c2c(O)c(-c3ccccc3)c(=O)n(-c3ccccc3)c2C1,,"inconclusive [activator, single point]"
Fc1ccccc1-n1cn[nH]c1=S,,"inconclusive [activator, single point]"
Cc1ccc(C)n1-c1ccc(NC(=O)c2ccccc2)cc1,,"inconclusive [activator, single point]"
CC(Oc1ccc(Cl)cc1Cl)c1nc(-c2ccc(NC(=O)c3ccccn3)cc2)no1 (stereo not drawn),,"inconclusive [activator, full curve]"
Cc1[nH]c2ccccc2c1C(=O)CSC(=S)N1CCCCC1,,"inconclusive [activator, single point]"
O=C(Nc1ccc(NC(=O)C2CC2)nc1)c1ccco1,,"inconclusive [activator, partial curve]"
